Our source for the activity change, negative = inhibition values is PubChem BioAssay AID1745853 (National Center for Advancing Translational Sciences (NCATS), 2022).

Assay in all cases: Primary Screen for Target Class Profiling of Small Molecule Inhibitors of Methyltransferases
Assay [1] deals with Glycine N-methyltransferase (Homo sapiens) (UniProt Q14749). As to conditions: purified enzyme, MTase-Glo SAH luminescence; measured here: GNMT inhibition; at 40 µM; stronger effect = lower value. The essentials:
(§1)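 Each enzyme was reacted with SAM and its substrate, with compounds tested once at 40 uM; SAH formed was read by MTase-Glo luminescence.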

Assay [2] deals with Guanidinoacetate N-methyltransferase (Homo sapiens) (UniProt Q14353). The conditions noted are these: purified enzyme, MTase-Glo SAH luminescence; measured here: GAMT inhibition; at 40 µM; stronger effect = lower value. The essentials:
as §1

Assay [3] concerns the target Histamine N-methyltransferase (Homo sapiens) (UniProt P50135). As to conditions: purified enzyme, MTase-Glo SAH luminescence; measured here: HNMT inhibition; at 40 µM; stronger effect = lower value. The essentials: as §1
Assay [4] addresses Nicotinamide N-methyltransferase (Homo sapiens) (UniProt P40261). As to conditions: purified enzyme, MTase-Glo SAH luminescence; measured here: NNMT inhibition; at 40 µM; stronger effect = lower value. The essentials: as §1
For assay [5], the target named is Phenylethanolamine N-methyltransferase (Homo sapiens) (UniProt P11086). As to conditions: purified enzyme, MTase-Glo SAH luminescence; measured here: PNMT inhibition; at 40 µM; stronger effect = lower value. The essentials: as §1

The other results are listed elsewhere or left out. Shown are side measurements of this screen, not its main read-out; they come without a call.
% is scaled to controls: 0 for no effect and ±100 for the full control effect.

Take `CC1(C(=O)NC2CCCCCCC2)Cn2c(ccc2-c2ccccc2)C(=O)N1CCN1CCOCC1` (stereo not given): the activity change, negative = inhibition in assay [1] was 1.81%; in assay [2], 2.92%; in assay [3], 4.66%; in assay [4], -5.17%; in assay [5], 2.7%.

For the compound `CCC(C)NC(=O)c1ccc2c(=O)n(C)c3nnc(SCc4ccccc4F)n3c2c1` (stereo not given), the activity change, negative = inhibition in assay [1] was 5.49%; in assay [2], 0.435%; in assay [3] it was 6.65%; in assay [4], -1.74%; in assay [5] it was 2.36%.

Take `COc1c(C(O)CC(C)C)ccc2c1C(=O)OCc1cc(C)cc(O)c1O2` (stereo not given): the activity change, negative = inhibition was 5.08% in assay [1]; 2.45% in assay [2]; 9.09% in assay [3]; -12.5% in assay [4]; 4.49% in assay [5].

`CCCCN1C(=O)c2ccc(-c3ccco3)n2CC1(C)C(=O)NC1CCCCCC1` (stereo not given): the activity change, negative = inhibition in assay [1] is -6.06%; in assay [2] it was 3.29%; in assay [3], 0.274%; in assay [4], -5.43%; in assay [5] it was -0.51%.

Consider `CC1OC(O[C@H]2CC[C@@]3(C)C(CC[C@]4(C)C3CC=C3C5CC(C)(C)CC[C@]5(C(=O)OC5OC(CO)C(OC6OC(COC7OCC(O)C(O)C7O)C(O)C(O)C6O)C(O)C5O)CC[C@]34C)C2(C)C)C(O)C(O)C1OC1OCC(OC2OCC(O)C(O)C2O)C(O)C1O` (stereo not given in full), for which the activity change, negative = inhibition in assay [1] was determined as 4.07%; in assay [2], 15%; in assay [3] it was 11.1%; in assay [4], 2.97%; in assay [5], 1.63%.

On to `C[C@@H](NC(=O)c1ccc(C#Cc2cccc(F)c2)cn1)C(C)(C)O`, for which the activity change, negative = inhibition in assay [1] was -4.72%; in assay [2], -1.38%; in assay [3], 8.68%; in assay [4], -13.5%; in assay [5], -2.02%.

In the case of `COc1ccc([C@H](C)NC(=O)c2c(C)noc2-c2cccs2)cc1`, the activity change, negative = inhibition was -0.454% in assay [1]; 1.5% in assay [2]; -2.93% in assay [3]; -3.23% in assay [4]; 10.8% in assay [5].

Turning to `CC1=CC(=O)C(=C(C)C)CC2C(C)(O)CCC12O` (stereo not given), the activity change, negative = inhibition in assay [1] was 3.16%; in assay [2], 3.61%; in assay [3] it was 11.7%; in assay [4] it was -11.5%; in assay [5], 6.81%.

In the case of `CCOc1ccc(NS(=O)(=O)c2ccc3[nH]c4c(c3c2)CCCC4)cc1`, the activity change, negative = inhibition in assay [1] amounted to 0.621%; in assay [2], 1.9%; in assay [3], 2%; in assay [4], 2.56%; in assay [5], 3.4%.

As for `COc1cccc(CN2C(=O)c3cc4occc4n3CC2(C)C(=O)NC2CCCCC2)c1` (stereo not given), the activity change, negative = inhibition in assay [1] is 2.24%; in assay [2], 3.85%; in assay [3] it was 5.64%; in assay [4], 0.085%; in assay [5], -0.852%.

Regarding `CN1C(=O)c2cc(C(=O)NC3CCN(Cc4ccccc4)CC3)nn2CC1(C)C(=O)NCc1ccccc1` (stereo not given), the activity change, negative = inhibition in assay [1] was -4.06%; in assay [2], -4.25%; in assay [3], -2.05%; in assay [4], -8.98%; in assay [5] it was -2.84%.

With `CCCNC(=O)N1CCC(N2CC(OCC3CC3)C23CCCCC3)CC1` (stereo not given), the activity change, negative = inhibition in assay [1] is -1.18%; in assay [2], -3.57%; in assay [3], -1.6%; in assay [4], -5.66%; in assay [5], -0.947%.

For `Cc1ccc(NC(=O)Cn2nc3n(CC(C)C)c(=O)c4ccc(C(=O)NCC(C)C)cc4n3c2=O)cc1`, the activity change, negative = inhibition in assay [1] came to 6.56%; in assay [2] it was 0.221%; in assay [3] it was 7.9%; in assay [4], 4.18%; in assay [5], 4.16%.

Regarding `CC1(C(=O)NC2CCCCC2)Cn2c(cc3occc32)C(=O)N1Cc1ccc(Cl)cc1` (stereo not given), the activity change, negative = inhibition in assay [1] was -11.3%; in assay [2], -6.33%; in assay [3], -3.51%; in assay [4], -11.4%; in assay [5], -8.56%.

In the case of `Cc1cccc(NS(=O)(=O)c2ccc3[nH]c4c(c3c2)CCCC4)c1C`, the activity change, negative = inhibition in assay [1] was -2.76%; in assay [2] it was 2.56%; in assay [3], 1.13%; in assay [4], -10.4%; in assay [5], 0.688%.

Regarding `CC(C)c1nc(-c2ccc(NC(=O)Nc3cccc(C(F)(F)F)c3)c3ccccc23)c2c(N)nccn12`, the activity change, negative = inhibition in assay [1] is -5.23%; in assay [2] it was -19.3%; in assay [3], -58%; in assay [4], -47.1%; in assay [5], -17.2%.

Consider `CC(C)CCNC(=O)C1(C)Cn2nc(C(=O)NCCc3c[nH]c4ccccc34)cc2C(=O)N1C` (stereo not given), for which the activity change, negative = inhibition in assay [1] was found to be 2.88%; in assay [2], 0%; in assay [3] it was 5.71%; in assay [4], 6.61%; in assay [5] it was 1.91%.

Take `Cc1cc(=O)n(CC(=O)NC(C)CCc2ccccc2)c(N2CCOCC2)n1` (stereo not given): the activity change, negative = inhibition in assay [1] is -3.83%; in assay [2], -4.74%; in assay [3], -2.7%; in assay [4], -7.7%; in assay [5] it was 0.54%.

In the case of `Cc1ccc(CNS(=O)(=O)c2ccc3c(c2)n(C)c(=O)n3C)cc1`, the activity change, negative = inhibition in assay [1] was 0.788%; in assay [2], 2.94%; in assay [3], 4.13%; in assay [4], 3%; in assay [5], -0.913%.

Regarding `Cn1cc(-c2cc(=O)c3ccnc(NCc4ccc(F)cc4)c3o2)cn1`, the activity change, negative = inhibition in assay [1] is -10.9%; in assay [2], -11.4%; in assay [3], -4.75%; in assay [4] it was -21.4%; in assay [5], -13.3%.

Consider `O=C(N[C@H](c1ccccc1)C1CC(O)C1)c1ccc(-n2cccn2)cc1` (stereo not given in full), for which the activity change, negative = inhibition was -1.61% in assay [1]; -2.32% in assay [2]; -9.66% in assay [3]; -7.48% in assay [4]; 8.77% in assay [5].

For the compound `COc1cccc(CN2C(=O)CCCCC2C(=O)NC2CCS(=O)(=O)C2)c1` (stereo not given), the activity change, negative = inhibition in assay [1] was -4.43%; in assay [2], 0.091%; in assay [3] it was -0.787%; in assay [4] it was -4.75%; in assay [5], -0.787%.

As to `CN(C)c1ccc(-c2nnc3n(Cc4ccc(F)cc4)c(=O)c4ccccc4n23)cc1`, the activity change, negative = inhibition in assay [1] is -18.8%; in assay [2], 0%; in assay [3], 0.982%; in assay [4], 3.56%; in assay [5] it was -0.534%.

Regarding `CCCn1c(=O)c2ccc(C(=O)NC3CCCCC3)cc2n2c(=O)n(CC(=O)c3ccc(C)cc3C)nc12`, the activity change, negative = inhibition came to 2.86% in assay [1]; 0% in assay [2]; 9.52% in assay [3]; 6.91% in assay [4]; 8.51% in assay [5].

Consider `CC1CCC(C(=O)N(c2cc(C#CC(C)(C)C)sc2C(=O)O)C2CCC(O)CC2)CC1` (stereo not given), for which the activity change, negative = inhibition in assay [1] came out at 1.79%; in assay [2], 23.5%; in assay [3], 10.2%; in assay [4], 0.519%; in assay [5], 13.1%.

For `C=C1CC[C@@H]2[C@](C)(CO)[C@H](O)CC[C@@]2(C)[C@@H]1C/C=C1/C(=O)OCC1OC(=O)/C(=C/CO)C(O)C[C@@H]1C(=C)CC[C@@H]2[C@](C)(CO)[C@H](O)CC[C@]21C` (stereo not given in full), the activity change, negative = inhibition in assay [1] was 0%; in assay [2], -16.9%; in assay [3], -1.79%; in assay [4], -27.9%; in assay [5], -30.6%.

For the compound `CC(CCO)CCC1C2(C)CCCC(C)(C)C2CC[C@@]1(C)O` (stereo not given in full), the activity change, negative = inhibition in assay [1] is -2.02%; in assay [2], 15.8%; in assay [3], 2.67%; in assay [4], -15.2%; in assay [5], 8.13%.

`COC(=O)c1ccccc1N1C(=O)CSc2c(c3ccccc3n2C)C1C(=O)NCc1ccccc1OC` (stereo not given): the activity change, negative = inhibition in assay [1] turned out to be 6.48%; in assay [2], 1.67%; in assay [3] it was 2.69%; in assay [4] it was 1.94%; in assay [5], 5.45%.

Consider `CC(C(O)/C=C/C(C)(C)O)C1CCC2(C)C3C(=O)C=C4C(CCC(O)C4(C)C)C3(C)CCC12C` (stereo not given), for which the activity change, negative = inhibition in assay [1] was -0.177%; in assay [2] it was 7.14%; in assay [3] it was 8.92%; in assay [4] it was -8.25%; in assay [5], 4.56%.
